From a compilation of properties of binary mixtures (doi:10.1016/j.molliq.2017.06.029)
Some of these densities may be calculated back from excess volumes.

Experiment: xn = mol fraction of the nth substance listed
Conditions: 100 kPa

OCc1ccco1 + CC(=O)[O-].CC[n+]1ccn(C)c1
mass density [kg/m3]
Conditions | 298.15 K | 303.15 K | 308.15 K | 313.15 K | 318.15 K
x2 = 0 | 1126.9 | 1122.3 | 1117.6 | 1112.9 | 1108.2
x2 = 0.0572 | 1129.3 | 1125 | 1120.6 | 1116.3 | –
x2 = 0.1058 | 1129.6 | 1125.5 | 1121.4 | 1117.3 | 1113.1
x2 = 0.1534 | 1129 | 1125 | – | 1117.1 | –
x2 = 0.2087 | 1127.8 | 1124 | 1120.1 | 1116.3 | –
x2 = 0.3068 | – | – | 1117.5 | – | 1110.2
x2 = 0.408 | 1121 | 1117.5 | 1113.9 | 1110.4 | 1106.9
x2 = 0.5063 | – | – | 1110 | 1106.6 | 1103.2
x2 = 0.5513 | 1115 | 1111.5 | 1108.2 | 1104.8 | –
x2 = 0.6031 | 1112.7 | 1109.4 | – | – | 1099.4
x2 = 0.7053 | 1108.5 | 1105.2 | – | 1098.7 | –
x2 = 0.8045 | 1104.5 | – | 1098.1 | 1095 | 1091.8
x2 = 0.8441 | 1103.1 | 1099.9 | 1096.7 | 1093.6 | 1090.4
x2 = 0.902 | 1100.9 | – | 1094.7 | 1091.5 | 1088.4

CC(=O)[O-].CC[n+]1ccn(C)c1 + OCc1ccco1
x1 = 1
Conditions | mass density [kg/m3]
298.15 K | 1097.5
303.15 K | 1094.5
308.15 K | 1091.4
313.15 K | 1088.3
318.15 K | 1085.2
